Data: the supplement of paper PMC8183993
Where a name gives a salt, the structure may show the parent alone. ± gives the standard deviation of the averaged measurements. The full ranking holds about 3,100 compounds; the median of “mean cytoplasmic OPP incorporation (global translation) relative to DMSO” is about 100, and the lowest 2% start at about 56. Some of the results follow.

System: U2OS
Experiment: mean cytoplasmic OPP incorporation (global translation) relative to DMSO (% of DMSO); higher = more protein synthesis
Conditions: 10 µM; 24 h
Method: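 Primary image-based screen in U2OS cells: compounds at 10 uM for 24 h, then a 1 h o-propargyl-puromycin (OPP) pulse, click labelling, and high-throughput microscopy. Mean cytoplasmic OPP intensity and nuclei count were normalised to DMSO wells within each plate (DMSO = 100) and averaged over triplicate plates.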

In order of falling “mean cytoplasmic OPP incorporation” value:
1. Clc1cnc(Oc2ccc(Oc3ncc(Cl)cc3Cl)cc2)c(Cl)c1  117
2. CN(C(=O)Cc1ccc(Cl)c(Cl)c1)[C@H](CN1CCCC1)c1ccccc1 [ICI-199,441 hydrochloride]  111
3. CC1(C)CC(O)CC(C)(C)N1[O]  110
4. S=C(NC1CCCCC1)N1CCC(c2cnc[nH]2)CC1 [Thioperamide maleate]  105
5. CC1(C)CC(O)CC(C)(C)N1[O] [Tempol (4-Hydroxy-TEMPO)]  104
6. COc1ccc2c(c1)[C@]13CCCC[C@@H]1[C@H](C2)N(C)CC3 [Dextromethorphan hydrobromide monohydrate]  104
7. COC[C@H]1OC(=O)c2coc3c2[C@@]1(C)C1=C(C3=O)[C@@H]2CCC(=O)[C@@]2(C)C[C@H]1OC(C)=O [Wortmannin]  104 ± 14
8. CNCC(O)c1ccc(O)cc1 (racemic) [(+,-)-Synephrine]  103
9. CN1[C@@H]2CC(O)C[C@H]1[C@@H]1O[C@@H]12 (stereo not given in full) [Scopine]  102
10. C=C1[C@@H]2CC[C@H]3[C@]4(C)C[C@H](O[C@@H]5O[C@H](CO)[C@@H](OS(=O)(=O)O)[C@H](OS(=O)(=O)O)[C@H]5OC(=O)CC(C)C)C[C@@H](C(=O)O)[C@H]4CC[C@]3(C2)[C@@H]1O [Atractyloside potassium salt]  102
11. C=CC[C@]1(O)CC[C@H]2[C@@H]3CCC4=CC(=O)CCC4=C3C=C[C@@]21C [Altrenogest]  101
12. Cn1cnc(CCN)c1 [N _-Methylhistamine dihydrochloride]  100
13. C[C@H](Cc1ccc(OCC(=O)O)cc1)NC[C@H](O)c1cccc(Cl)c1  99
14. C[C@]12CC[C@@H](O)C[C@@H]1CC[C@@H]1[C@@H]2CC[C@]2(C)C(=O)CC[C@@H]12 [Androsterone]  97.1
15. Cc1cccc(C(C)c2c[nH]cn2)c1C (stereo not given) [Medetomidine HCl]  96.7
16. Cc1cccc(C(C)c2c[nH]cn2)c1C (stereo not given) [Medetomidine hydrochloride]  96.3
17. CC(Cc1ccc(O)cc1)NCC(O)c1cc(O)cc(O)c1 (stereo not given) [Fenoterol hydrobromide]  95.5
18. CC(=O)N(C)c1cccc(-c2ccnc3c(C(=O)c4cccs4)cnn23)c1 [Indiplon]  92.7
19. C/C(=C\c1csc(C)n1)[C@@H]1C[C@@H]2O[C@]2(C)CCC[C@H](C)[C@H](O)[C@@H](C)C(=O)C(C)(C)[C@@H](O)CC(=O)O1 [Epothilone B (EPO906)]  92.3
20. CN1C(=O)[C@]23CC4=CC=C[C@H](O)[C@H]4N2C(=O)[C@@]1(CO)SS3 [Gliotoxin]  33.6
